We go through 52 compounds from PubChem BioAssay AID1645882 (National Center for Advancing Translational Sciences (NCATS), 2021).

Hit rate of the full screen: of about 16,000 compounds, about 120 (0.75%) were called active. Another 4% or so got no clear call; they are omitted. Calls come from the whole dose curve; as a rule, active = well fitted inhibition curve with a large enough effect; inconclusive = small, poorly fitted or top-dose-only effect; inactive = no such curve, though single readings can be large or run the other way. This is one part of the list.
Potency is the fitted concentration of half-maximal effect.

This test concerns the target Rap guanine nucleotide exchange factor 3 (Homo sapiens) (UniProt O95398). Put plainly: Validation qHTS for antagonist of cAMP-regulated guanine nucleotide exchange factor 3 (EPAC1). Note: nearly all actives have a fitted effect of over 75% in size. The following applies: EPAC1 Rap1B-BODIPY-GDP exchange, fluorescence; activity change, negative = inhibition: at the top concentration. The method in brief: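 EPAC1 (100 nM) mixed with 250 nM RAP1B-BODIPY-GDP and 50 uM GDP; compounds in concentration series, 5 min at room temperature. Fluorescence (ex 480/em 540 nm) read every 5 min for 30 min; normalized to ATA control and DMSO.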
UniProt O95398, sequence (O95398 whole entry, looked up): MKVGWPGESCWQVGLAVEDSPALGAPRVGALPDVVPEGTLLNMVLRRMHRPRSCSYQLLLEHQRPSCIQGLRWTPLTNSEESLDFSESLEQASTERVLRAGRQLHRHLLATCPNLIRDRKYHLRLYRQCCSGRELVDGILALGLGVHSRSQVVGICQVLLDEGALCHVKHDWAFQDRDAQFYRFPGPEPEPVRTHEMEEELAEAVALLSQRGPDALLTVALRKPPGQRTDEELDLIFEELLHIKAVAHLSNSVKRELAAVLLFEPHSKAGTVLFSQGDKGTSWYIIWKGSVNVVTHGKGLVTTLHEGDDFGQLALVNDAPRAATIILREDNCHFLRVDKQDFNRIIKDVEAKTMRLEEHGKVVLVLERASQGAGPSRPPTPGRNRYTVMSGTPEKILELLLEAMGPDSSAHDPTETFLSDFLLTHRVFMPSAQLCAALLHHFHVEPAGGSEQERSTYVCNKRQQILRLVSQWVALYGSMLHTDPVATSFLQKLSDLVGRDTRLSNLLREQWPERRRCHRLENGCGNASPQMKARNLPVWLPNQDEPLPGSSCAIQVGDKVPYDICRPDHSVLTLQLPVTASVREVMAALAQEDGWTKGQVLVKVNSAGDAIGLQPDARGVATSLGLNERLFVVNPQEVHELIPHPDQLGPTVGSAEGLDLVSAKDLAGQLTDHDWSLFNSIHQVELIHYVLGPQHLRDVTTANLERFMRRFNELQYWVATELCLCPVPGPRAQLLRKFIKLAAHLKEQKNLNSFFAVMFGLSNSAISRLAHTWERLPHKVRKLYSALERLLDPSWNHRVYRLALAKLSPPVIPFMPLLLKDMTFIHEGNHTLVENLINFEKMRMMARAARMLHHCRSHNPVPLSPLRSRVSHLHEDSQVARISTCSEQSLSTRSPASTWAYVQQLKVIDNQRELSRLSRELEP
In general terms: Quantitative high-throughput screening tests each substance at several concentrations.
In the case of `O=C/C=C/c1ccccc1`, the “activity change, negative = inhibition” value was inactive: 20.4%.

With `CC(=O)OC1CN2CCC1CC2` (configuration not stated), the “activity change, negative = inhibition” value is inactive: 0.989%.

With `CC(C)CN1CCCC2(CCN(C(=O)Oc3ccccc3)CC2)C1`, the “activity change, negative = inhibition” value was inactive: 8.06%.

Regarding `CC1CC[C@@]2(OC1)OC1C(O)C3C4CC[C@H]5CC(O[C@@H]6O[C@@H](CO)[C@H](OC7OC(CO)C(O)C(OC8OCC(O)C(O)[C@H]8O)[C@@H]7O[C@@H]7OC(CO)[C@H](O)[C@@H](O[C@@H]8OC(CO)C(O)C(O)C8O)C7O)C(O)C6O)C(O)C[C@]5(C)C4CC[C@]3(C)C1C2C` (some centres not stated), the “activity change, negative = inhibition” value was inactive: -0.236%.

As to `CCCOC(=O)Cc1ccc(OCC(=O)N(CC)CC)c(OC)c1`, the “activity change, negative = inhibition” value was inactive: 26.8%.

Consider `CC(CCc1ccccc1)NC(C)C(O)c1ccc(O)cc1` (configuration not stated), for which the activity change, negative = inhibition result is “inactive”.

Turning to `OCCCBr`, the “activity change, negative = inhibition” value is inactive: 101% [at 320 µM].

On to `CCC(=O)O[C@]1(c2ccccc2)CCN(C)C[C@H]1C`, for which the “activity change, negative = inhibition” value was inactive: 1.01%.

For `Cc1o[nH]c(=O)c1C[C@@H](N)C(=O)O`, the “activity change, negative = inhibition” value was inactive: 11.7%.

In the case of `NC(=NCCC[C@H](N)C(=O)O)N[N+](=O)[O-]`, the activity change, negative = inhibition result is “inactive”.

Consider `Cc1c(C(=O)c2cccc3ccccc23)c2cccc3c2n1[C@H](CN1CCOCC1)CO3`, for which the activity change, negative = inhibition result is “inactive”.

For the compound `CCCN(C/C=C/I)C1CCc2ccc(O)cc2C1` (configuration not stated), the “activity change, negative = inhibition” value was inactive: 1.56%.

With `O=Cc1ccccc1`, the activity change, negative = inhibition result was “inactive”.

For `N=C(N)c1ccc(CS(=O)(=O)F)cc1`, the “activity change, negative = inhibition” value is inactive: -0.822% [at 75.8 µM].

For the compound `COP(=S)(OC)Oc1ccc([N+](=O)[O-])cc1`, the “activity change, negative = inhibition” value was inactive: -18.7%.

In the case of `O=c1oc2ccccc2c(O)c1C(CC(O)c1ccc(-c2ccc(Br)cc2)cc1)c1ccccc1` (configuration not stated), the Potency was active: 100 µM.

For `C=C(C)c1cc2cc(C(C)=O)c(O)cc2o1`, the activity change, negative = inhibition result is “inactive”.

As for `CN1[C@H]2CC[C@@H]1[C@@H](C(=O)O)[C@@H](OC(=O)c1ccccc1)C2`, the activity change, negative = inhibition result is “inactive”.

With `CC(=O)O[C@@H]1C[C@@]2(C)C(c3ccoc3)C[C@H]3O[C@]32[C@]2(C)C(=O)C(O)=C3C(C)(C)C(=O)C=C[C@]3(C)C12` (some centres not stated), the “activity change, negative = inhibition” value was inactive: -12%.

Turning to `Cc1cc(OC(=O)N2CCCCC2)c(C(C)C)cc1[N+](C)(C)C`, the “activity change, negative = inhibition” value is inactive: -2.75%.

As for `CC(C)OC(=O)Nc1cccc(Cl)c1`, the “activity change, negative = inhibition” value is inactive: 4.03%.

`c1ccc2nc(N3CCNCC3)ccc2c1`: the activity change, negative = inhibition result is “inactive”.

For `C=C[C@H]1CN2CCC1C[C@@H]2C(O)c1ccnc2ccccc12` (some centres not stated), the “activity change, negative = inhibition” value was inactive: 4.58%.

Turning to `C[C@@H](N)C(=O)c1ccccc1`, the “activity change, negative = inhibition” value was inactive: 19.2% [at 320 µM].

`F/C(COc1ccc2c(c1)[nH]c1ccccc12)=C1/CN2CCC1CC2`: the “activity change, negative = inhibition” value was inactive: 18.6%.

Take `O=C1NCN(c2ccccc2)C12CCN(CC1COc3ccccc3O1)CC2` (configuration not stated): the activity change, negative = inhibition entry was “inactive”.

As for `O=C(Oc1ccccc1)N1CCC2(CCN(Cc3ccncc3)CC2)CC1`, the “activity change, negative = inhibition” value was inactive: 4.81%.

For the compound `COc1c2c(cc3c1OCO3)C13C=CC(OC)CC1N(C2)CC3O` (configuration not stated), the “activity change, negative = inhibition” value was inactive: -3.37%.

As to `ClC1=C(Cl)C2(Cl)C3C(Cl)C=CC3C1(Cl)C2(Cl)Cl` (configuration not stated), the “activity change, negative = inhibition” value was inactive: 10.3%.

Turning to `O=C1CC2OCC=C3CN4CC[C@]56c7ccccc7N1[C@H]5[C@H]2C3C[C@H]46` (some centres not stated), the “activity change, negative = inhibition” value is inactive: 17.3%.

In the case of `O=c1cccc2n1CC1CNCC2C1` (configuration not stated), the activity change, negative = inhibition entry was “inactive”.

As for `Oc1ccc2c3c1O[C@H]1c4[nH]c5ccccc5c4C[C@@]4(O)C(C2)N(CC2CC2)CCC314` (some centres not stated), the activity change, negative = inhibition entry was “inactive”.

For `Cc1ccc2c(c1)C1CN(C)CCC1N2` (configuration not stated), the “activity change, negative = inhibition” value was inactive: 11.8%.

For `CC(N)Cc1c[nH]c2ccc(OCc3cccs3)cc12` (configuration not stated), the activity change, negative = inhibition result was “inactive”.

As for `C[C@@H]1C[C@@H](O)[C@@]2(O)[C@]13CC(=O)OC[C@]2(C)[C@@](C)(O)C(=O)C3`, the “activity change, negative = inhibition” value is inactive: 14%.

On to `Oc1cccc[c]1[Hg][Cl]`, for which the “activity change, negative = inhibition” value is inactive: 10.7%.

Turning to `O=C1C=C2C=C[C@@H]3C[C@@]2(O1)[C@H]1CCCCN31`, the activity change, negative = inhibition result was “inactive”.

With `CCC(=O)OC1(c2ccccc2)CCN(C)CC1`, the “activity change, negative = inhibition” value is inactive: 0.342% [at 320 µM].

Consider `N#Cc1c(Cl)cccc1Cl`, for which the “activity change, negative = inhibition” value is inactive: 7.03%.

As for `CN1CCC(c2c[nH]c3ccc(O)cc23)CC1`, the activity change, negative = inhibition entry was “inactive”.

With `CC(C)[C@@]1(NC(=O)[C@@H]2C[C@@H]3c4cccc5[nH]cc(c45)C[C@H]3N(C)C2)O[C@@]2(O)[C@@H]3CCCN3C(=O)[C@H](Cc3ccccc3)N2C1=O`, the activity change, negative = inhibition entry is “inactive”.

Regarding `CC(C)[C@H](NC(=O)[C@H](CCC(=O)O)NC(=O)[C@H](Cc1ccccc1)NC(=O)[C@H](C)NC(=O)[C@@H](N)Cc1ccc(O)cc1)C(=O)N[C@H](C(=O)NCC(N)=O)C(C)C`, the activity change, negative = inhibition is inactive: 13.6% [at 15.3 µM].

Take `CCN[C@@H](C)Cc1cccc(C(F)(F)F)c1`: the “activity change, negative = inhibition” value was inactive: 27.5% [at 320 µM].

Take `CCCCCCCCCCCCCCCCOC[C@H](COP(=O)([O-])OCC[N+](C)(C)C)OC(C)=O`: the activity change, negative = inhibition was inactive: 13.2% [at 15.3 µM].

Take `CC1(C)C(O)CC(=O)[C@]2(C)C1CC(=O)[C@]1(C)C2CC[C@@]2(C)C(c3ccoc3)OC(=O)C3O[C@@]321` (some centres not stated): the “activity change, negative = inhibition” value was inactive: -4.56%.

For the compound `CCN1C[C@@]2(COC(=O)c3ccccc3N3C(=O)CC(C)C3=O)CC[C@H](OC)[C@]34C5C[C@@H]6[C@@H](OC)C[C@@](O)(C5[C@H]6OC)[C@@](O)(C13)[C@@H](OC)C24` (some centres not stated), the “activity change, negative = inhibition” value is inactive: 10.8%.

With `NCCc1cccc(O)c1`, the activity change, negative = inhibition result was “inactive”.

Turning to `O=C(O)C(Cl)(Cl)Cl`, the “activity change, negative = inhibition” value is inactive: 6.38%.

In the case of `CC(C)Nc1ccc(Nc2ccccc2)cc1`, the “activity change, negative = inhibition” value was inactive: 5.35%.

As to `O[C@H]1[C@H]2[C@H](O)CCCN2C[C@H]1O`, the “activity change, negative = inhibition” value is inactive: 21.7%.

For the compound `CNC(=O)NC(O)C(Cl)(Cl)Cl` (configuration not stated), the “activity change, negative = inhibition” value was inactive: 9.2%.

On to `O=c1ccc2c(O)c3ccoc3cc2o1`, for which the “activity change, negative = inhibition” value was inactive: 0.468%.
